Laboratory results: publication PMC7819943, “Rice protein-binding microarrays: a tool to detect cis-acting elements near promoter regions in rice”
This is one part of the list.

Target: T1, OsWOX13 (Oryza sativa, UniProt Q5QMM3 1-267)
T1 sequence: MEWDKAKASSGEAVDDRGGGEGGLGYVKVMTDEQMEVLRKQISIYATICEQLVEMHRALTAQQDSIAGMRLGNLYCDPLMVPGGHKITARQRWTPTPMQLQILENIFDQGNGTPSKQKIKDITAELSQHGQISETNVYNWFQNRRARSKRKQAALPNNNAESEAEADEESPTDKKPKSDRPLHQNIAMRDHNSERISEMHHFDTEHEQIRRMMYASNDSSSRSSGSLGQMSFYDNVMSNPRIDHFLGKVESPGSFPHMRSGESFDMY
Assay: protein-binding microarray (RPBM); PBS, 2% BSA, 51.3 ng/ul salmon testes DNA, 50 uM zinc acetate, 200 nM TF, 25 C, 1 h; high values mean tight binding
Details: protein: recombinant; tags: N-terminal polyhistidine and DsRed monomer fusion (pET32a); label: CyDye5-dUTP incorporated in the synthesized complementary strand; 3' TTTTT single-stranded linker to array surface; dsDNA, one strand shown
Procedure, shortened: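 For the binding signal, per-feature fluorescence intensity was read in arbitrary units on an Axon 4000B scanner. Before scanning, a 2% BSA-blocked custom Agilent array made double-stranded with Cy5-dUTP was washed after 1 h at 25 °C with 200 nM protein and 50 µM zinc acetate. The proteins were Ni–NTA-purified transcription factors with N-terminal polyhistidine and DsRed fusions, expressed in E. coli BL21-CodonPlus.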

Row | Sequence | binding signal
1 | TGTGCCTAATTTGTTTTGATCTAAAATTTATAAGGGAATTCGGAGTCACCTAGTGCAG | 12900 fluorescence intensity (a.u.)
2 | TAGAGGGTGTGGATAGTGATTGAGTGGGATTTAGGTCCTCCGGAGTCACCTAGTGCAG | 5150 fluorescence intensity (a.u.)
3 | AAAGATTTAATTCTTACAAACACAACCGCGTGTAATCGGACGGAGTCACCTAGTGCAG | 4570 ± 557 fluorescence intensity (a.u.)
4 | TGTCAATGTTTTAGGTTCTCATAGTAAATACTAACATCCTCGGAGTCACCTAGTGCAG | 3970 fluorescence intensity (a.u.)
5 | ATAAAATTAAAGTAAATGTGATACAAACGTGGCATGTTTGCGGAGTCACCTAGTGCAG | 8490 fluorescence intensity (a.u.)
6 | AGGTAATTGAGTATGCAGTAAGCAGTTGATGTGTATCTGTCGGAGTCACCTAGTGCAG | 31800 fluorescence intensity (a.u.)
7 | ATTTCCAATCTCCATTAATAAGCCAATCCCCAGCCTGTCCCGGAGTCACCTAGTGCAG | 6110 fluorescence intensity (a.u.)
8 | ATGTTTTGCCTTTTATAATTATACGTGTGTAAATCATATGCGGAGTCACCTAGTGCAG | 3900 fluorescence intensity (a.u.)
9 | ACTTTGCTTAACAAATTACTAATTTACTACCAGTAGTCTACGGAGTCACCTAGTGCAG | 12600 fluorescence intensity (a.u.)
10 | TATTTTAAAATTGATAAAATCATCACGGATATCTTGTTGTCGGAGTCACCTAGTGCAG | 15900 fluorescence intensity (a.u.)
11 | AGTTGATTTTGACTGAAGTTTGCCTCGGACGTGCTGGTGGCGGAGTCACCTAGTGCAG | 51500 fluorescence intensity (a.u.)
12 | CTATTAATTTCCTCGTGTTAGTTAATGAATCATCACGCGCCGGAGTCACCTAGTGCAG | 11600 fluorescence intensity (a.u.)
13 | TATATATATATATATATATATATATATATATTACAAAATACGGAGTCACCTAGTGCAG | 10700 fluorescence intensity (a.u.)
14 | GAAGTTATTAACAAATTAGATACATCTCTTGTTTAGATTACGGAGTCACCTAGTGCAG | 4700 fluorescence intensity (a.u.)
15 | CTGATAAATTATATAGCTCCTGTGAAACTTTCTATGCAGACGGAGTCACCTAGTGCAG | 15500 fluorescence intensity (a.u.)
16 | TTTGAAGATTTAATTGCAACGAATTTAATGGTGCAATCGGCGGAGTCACCTAGTGCAG | 10600 fluorescence intensity (a.u.)
17 | GTGTATTGATCTTGGATTGAGGGAGTTTTATCTGAAGACTCGGAGTCACCTAGTGCAG | 4730 fluorescence intensity (a.u.)
18 | AAAATCATAAAATTGGCTAAATTAGTATAGGAAGGGTCCCCGGAGTCACCTAGTGCAG | 12100 fluorescence intensity (a.u.)
19 | TAGTAATTGGTACTGTTGAACTTATTAGCGTGCTCCCCAACGGAGTCACCTAGTGCAG | 25900 fluorescence intensity (a.u.)
20 | TATATTTTGATTTTAAATTTGACAAAAGAATCGGGAAATCCGGAGTCACCTAGTGCAG | 5000 fluorescence intensity (a.u.)
21 | TACATGACTGAATCATCGTTAATCACCGTTGAAAAGTCACCGGAGTCACCTAGTGCAG | 14700 fluorescence intensity (a.u.)
22 | CAGGATTAGCTAGGGAATTAACGTGTCTATTACCATACTTCGGAGTCACCTAGTGCAG | 12500 fluorescence intensity (a.u.)
23 | CCTCTCTTTAATTATACCCTGCTAACCCGACCAAGCAAAGCGGAGTCACCTAGTGCAG | 3320 fluorescence intensity (a.u.)
